# Source: PubChem BioAssay AID485344 (National Center for Advancing Translational Sciences (NCATS), 2010)
# About 6,900 (2%) of roughly 340,000 compounds were called active. Cut-off read from the data, not from the text of the source: active = inhibition above about 30%; inactive = below that, where a call was filed. The list shows a part of the results, in another mix than the full data. Entries without a call were filed so in the source.
# Molecular target: D(2) dopamine receptor (Homo sapiens) (UniProt P14416)
# Chain of UniProt P14416 (P14416 whole entry, looked up): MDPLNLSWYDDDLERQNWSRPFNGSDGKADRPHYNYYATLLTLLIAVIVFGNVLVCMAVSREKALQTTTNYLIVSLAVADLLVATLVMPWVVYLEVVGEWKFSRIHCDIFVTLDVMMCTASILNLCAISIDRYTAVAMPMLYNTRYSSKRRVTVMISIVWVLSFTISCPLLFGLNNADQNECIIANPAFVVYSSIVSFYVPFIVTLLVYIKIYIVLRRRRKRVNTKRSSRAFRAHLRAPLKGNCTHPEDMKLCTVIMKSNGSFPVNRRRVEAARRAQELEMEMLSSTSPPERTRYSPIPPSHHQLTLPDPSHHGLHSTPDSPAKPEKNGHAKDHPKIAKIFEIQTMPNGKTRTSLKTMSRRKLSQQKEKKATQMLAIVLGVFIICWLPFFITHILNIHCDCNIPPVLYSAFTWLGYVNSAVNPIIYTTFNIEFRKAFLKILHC
# Test: HTS Assay for Allosteric Antagonists of the Human D2 Dopamine Receptor: Primary Screen for Antagonists; note: 0% is about no effect
# Conditions: HEK293 TREx D2 cells, calcium flux, dopamine EC80; at 10 µM; stronger effect = higher value
# Summary of the method: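 Calcium mobilization kinetics were recorded at 1 s intervals in tetracycline-induced HEK293 T-REx D2 cells, first for 180 s after compound addition and then 180 s after EC80 dopamine.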
row,SMILES,inhibition
1,Cc1ccc(C(=O)Nc2ccc(F)cc2)cc1S(=O)(=O)N1CCCCCC1,-25.2%
2,COc1ccc(NC(=O)c2cc(S(=O)(=O)N3CCOCC3)cn2C)cc1Cl,14.8%
3,CC(C)(C)C(=O)Nc1cc(-c2cccc(Br)c2)nn1-c1ccccc1,2.1%
4,CC(=O)Oc1ccccc1C(=O)Nc1ncc([N+](=O)[O-])s1,active: 35%
5,CCOC(=O)c1ccc(NC(=O)CSc2nc3ncc(Br)c(C)c3[nH]2)cc1,4.39%
6,COCCCNC(=O)c1ccc(Cn2c(=O)c3ccccc3n(CC(N)=O)c2=O)cc1,-4.72%
7,CCC(=O)N1c2ccccc2CC1C(=O)NCCCN1CCN(c2cc(C)ccc2C)CC1 (stereo unspecified),-6.52%
8,COc1ccc(-c2cc3nc(N)cc(=O)n3[nH]2)cc1,0.311%
9,CCN(C(=O)c1ccc2c(c1)N(Cc1cccc(Cl)c1)C(=O)c1ccccc1S2=O)c1ccccc1 (stereo unspecified),18.2%
10,Cc1cc(C)c(NC(=O)Cn2c(=O)n(-c3cccc(C(F)(F)F)c3)c(=O)c3c(C)c(C)sc32)c(C)c1,10.1%
11,O=C(O)c1ccc(Nc2nc3ccccc3c3nncn23)cc1,8.78%
12,COc1ccccc1NC(=O)C(Cc1ccccc1)NS(=O)(=O)c1ccc2c(c1)CCN2C(C)=O (stereo unspecified),6.59%
13,CC(=O)N1CCOc2cc(S(=O)(=O)NCc3ccccc3Cl)c(C)cc21,-5.91%
14,CCc1ccccc1Nc1nn2c(=O)c3ccc(C(=O)NCc4ccc(C)cc4)cc3nc2s1,-1.49%
15,Cc1ccc(NC(=O)c2noc(C(C)C)c2[N+](=O)[O-])cc1,active: 50.8%
16,CC(=O)N1CCc2c(sc3c2c(=O)n(-c2ccccc2)c(=O)n3CC(=O)c2ccc(Cl)cc2)C1,-5.07%
17,O=C(NCc1cccc(F)c1)C1CCN(c2nc3ccccc3nc2C(F)(F)F)CC1,1.43%
18,O=C(NCCN1CCOCC1)c1cccc(NS(=O)(=O)c2ccc(Br)cc2)c1,active: 33.1%
19,COCCNC(=O)CCn1c(=O)c2cc(OC)c(OC)cc2n(CC(=O)Nc2ccc(F)c(Cl)c2)c1=O,8.94%
20,O=C(Nc1ccc(Cl)cc1Cl)c1cc(S(=O)(=O)N2CCC3(CC2)OCCO3)ccc1F,14.8%
21,CCN(CCCNC(=O)CSc1cc(=O)n(C)c2ccccc12)c1ccccc1,2.93%
22,CCOc1cccc(NC(=O)C2CC(=O)N(C)C(=Nc3cccc(OC)c3)S2)c1 (stereo unspecified),1.12%
23,Cc1cc(C)c(NC(=O)C(C)n2c(=O)cc(C)c3c(C)nn(-c4ccccc4)c32)c(C)c1 (stereo unspecified),-12.5%
24,Cc1[nH]c2ccccc2c1CCNS(=O)(=O)c1ccc(S(N)(=O)=O)cc1,active: 54.8%
25,COc1ccc([N+](=O)[O-])cc1NC(=O)C(C)c1ccccc1 (stereo unspecified),active: 32.2%
26,O=C(NC1CCCCCC1)C1CCN(C(=O)N2CCOc3ccc(Cl)cc32)CC1,8.1%
